27 molecules from the antibiotic and cytotoxicity screens of Wong et al. (2023) can be followed below.

One assay deals with HSkMC. Kind of assay: cytotoxicity call (relative viability < 0.9). To be noted: 10 µM.
In another assay the test system is HepG2. Kind of assay: cytotoxicity call (relative viability < 0.9). The note with it: 10 µM.
A further assay relates to S. aureus RN4220. Kind of assay: growth inhibition call (relative growth <= 0.2). To be noted: 50 µM.

Each structure is given as a SMILES string. Some of the results follow.

On to `Cc1noc(C)c1S(=O)(=O)Nc1ccc2c(c1)C(=O)N([C@H](C)CO)C[C@@H](C)[C@@H](CN(C)C(=O)NC(C)C)O2`, for which the cytotoxicity call in the assay on HSkMC and in the assay on HepG2 was “inactive” in each case. Besides, in the assay with S. aureus RN4220, the growth inhibition call is “inactive”.

On to `CCCN(C)C[C@@H]1OCCCC[C@H](C)Oc2ccc(NC(=O)C3CCCCC3)cc2C(=O)N([C@H](C)CO)C[C@@H]1C`, for which the cytotoxicity call in the assay on HSkMC and with HepG2 was “inactive” in each case. Further, the growth inhibition call with S. aureus RN4220 is “inactive”.

Turning to `Cc1noc(C)c1NC(=O)Nc1ccc2c(c1)C(=O)N([C@H](C)CO)C[C@H](C)[C@H](CN(C)Cc1ccccc1)OCCCC[C@H](C)O2`, the cytotoxicity call in the assay with HSkMC and in the assay on HepG2 was “inactive” in each case. Besides, the growth inhibition call with S. aureus RN4220 was “inactive”.

Turning to `Cc1ccc2nc(CN)cn2c1`, the cytotoxicity call in the assay with HSkMC and in the assay with HepG2 was “inactive” each time. In addition, in the assay on S. aureus RN4220, the growth inhibition call is “inactive”.

For the molecule `C[C@H]1CN([C@@H](C)CO)S(=O)(=O)c2ccc(C#Cc3ccccc3F)cc2O[C@H]1CN(C)CC1CC1`, the cytotoxicity call in the assay on HSkMC and in the assay with HepG2 was “inactive” each time. The growth inhibition call in the assay on S. aureus RN4220 is “inactive”.

For the molecule `CO[C@@H]1CN(C)C(=O)c2ccc(NC(=O)c3cnccn3)cc2OC[C@@H](C)N(C(=O)c2cnccn2)C[C@H]1C`, the cytotoxicity call in the assay with HSkMC and in the assay with HepG2 was “inactive” throughout. Besides, the growth inhibition call in the assay with S. aureus RN4220 was “inactive”.

Turning to `Cc1noc(C)c1NC(=O)N(C)C[C@H]1Oc2ccc(NC(=O)CCCN(C)C)cc2CC(=O)N([C@@H](C)CO)C[C@@H]1C`, the cytotoxicity call in the assay on HSkMC and in the assay on HepG2 was “inactive” throughout. The growth inhibition call with S. aureus RN4220 was “inactive”.

For the molecule `O=C(C[C@@H]1CC[C@H]2[C@@H](COC[C@H](O)CN2C(=O)Nc2cc(Cl)cc(Cl)c2)O1)N1CCOCC1`, the cytotoxicity call in the assay with HSkMC and with HepG2 was “inactive” throughout. Besides, the growth inhibition call in the assay on S. aureus RN4220 was “inactive”.

On to `CCC[C@@H](O)C#Cc1cnc2c(c1)C(=O)N([C@H](C)CO)C[C@H](C)[C@H](CN(C)C(=O)NC1CCCCC1)O2`, for which the cytotoxicity call in the assay with HSkMC and in the assay with HepG2 was “inactive” in each case. The growth inhibition call with S. aureus RN4220 is “inactive”.

Regarding `C[C@H](CO)N1C[C@H](C)[C@H](CN(C)S(=O)(=O)c2ccc(F)cc2)Oc2ccc(NC(=O)Nc3cccc4ccccc34)cc2C1=O`, the cytotoxicity call in the assay on HSkMC and with HepG2 was “inactive” in each case. Moreover, the growth inhibition call with S. aureus RN4220 is “inactive”.

As to `COCCNC(=O)C[C@@H]1CC[C@H](NS(=O)(=O)c2ccc(C)cc2)[C@H](CO)O1`, the cytotoxicity call in the assay on HSkMC and in the assay on HepG2 was “inactive” each time. For the same molecule, in the assay on S. aureus RN4220, the growth inhibition call was “inactive”.

`COCC(=O)N(C)C[C@@H]1Oc2cc(-c3ccc(C#N)cc3)ccc2S(=O)(=O)N([C@@H](C)CO)C[C@@H]1C`: the cytotoxicity call in the assay on HSkMC and with HepG2 was “inactive” each time. Further, the growth inhibition call with S. aureus RN4220 is “inactive”.

Regarding `C[C@@H]1CCCCO[C@@H](CN(C)Cc2ccc(C(=O)O)cc2)[C@@H](C)CN([C@@H](C)CO)C(=O)c2cc(NC(=O)Nc3ccc(F)cc3)ccc2O1`, the cytotoxicity call in the assay with HSkMC and with HepG2 was “inactive” each time. The growth inhibition call in the assay on S. aureus RN4220 was “inactive”.

Consider `Cc1noc(C)c1NC(=O)Nc1ccc2c(c1)CC(=O)N([C@H](C)CO)C[C@@H](C)[C@H](CN(C)S(=O)(=O)c1cccs1)O2`, for which the cytotoxicity call with HSkMC and with HepG2 was “inactive” each time. Besides, the growth inhibition call in the assay on S. aureus RN4220 is “inactive”.

As to `CCCNC(=O)N1C[C@H](O)COC[C@@H]2O[C@@H](CC(=O)N3CCOCC3)CC[C@H]21`, the cytotoxicity call in the assay with HSkMC and in the assay with HepG2 was “inactive” throughout. Also, the growth inhibition call in the assay with S. aureus RN4220 was “inactive”.

As for `C[C@@H]1CCCCO[C@@H](CN(C)C(=O)Nc2ccc3c(c2)OCO3)[C@H](C)CN([C@H](C)CO)C(=O)c2cc(NC(=O)Nc3ccc(C(F)(F)F)cc3)ccc2O1`, the cytotoxicity call in the assay on HSkMC and in the assay with HepG2 was “inactive” each time. Further, in the assay on S. aureus RN4220, the growth inhibition call is “inactive”.

In the case of `CC(C)NC(=O)N(C)C[C@H]1Oc2ccc(NS(=O)(=O)c3ccc(Cl)cc3)cc2CC(=O)N([C@H](C)CO)C[C@@H]1C`, the cytotoxicity call in the assay on HSkMC and in the assay with HepG2 was “inactive” each time. For the same molecule, in the assay on S. aureus RN4220, the growth inhibition call was “inactive”.

`COc1ccc(S(=O)(=O)Nc2ccc3c(c2)CC(=O)N([C@H](C)CO)C[C@@H](C)[C@H](CN(C)S(=O)(=O)c2c(C)noc2C)O3)cc1`: the cytotoxicity call in the assay with HSkMC and in the assay with HepG2 was “inactive” in each case. In the assay with S. aureus RN4220, the growth inhibition call is “inactive”.

With `N[C@@H](CO)c1cccc(Br)c1`, the cytotoxicity call in the assay on HSkMC and with HepG2 was “inactive” throughout. Besides, the growth inhibition call in the assay with S. aureus RN4220 was “inactive”.

On to `O=C1CCC(C(=O)N2CCN(CC3CC3)[C@@H]3CS(=O)(=O)C[C@@H]32)=NN1`, for which the cytotoxicity call in the assay on HSkMC and with HepG2 was “inactive” each time. The growth inhibition call in the assay with S. aureus RN4220 was “inactive”.

On to `C[C@@H]1CCCCO[C@H](CN(C)Cc2ccc(C(F)(F)F)cc2)[C@@H](C)CN([C@H](C)CO)C(=O)c2cc(NC(=O)C3CCCCC3)ccc2O1`, for which the cytotoxicity call in the assay with HSkMC was “inactive”. Further, the cytotoxicity call in the assay with HepG2 is “active”. The growth inhibition call with S. aureus RN4220 is “inactive”.

Consider `O=C(C[C@@H]1C[C@@H]2c3cc(NS(=O)(=O)c4ccc(F)cc4)ccc3O[C@@H]2[C@H](CO)O1)NC1CCCC1`, for which the cytotoxicity call with HSkMC and in the assay on HepG2 was “inactive” each time. The growth inhibition call with S. aureus RN4220 was “inactive”.

Take `C[C@@H]1CCCCO[C@H](CN(C)S(=O)(=O)c2cccs2)[C@H](C)CN([C@@H](C)CO)C(=O)c2cc(NS(=O)(=O)c3cn(C)cn3)ccc2O1`: the cytotoxicity call in the assay with HSkMC and in the assay on HepG2 was “inactive” in each case. For the same molecule, in the assay on S. aureus RN4220, the growth inhibition call was “inactive”.

With `CC(=O)N1C[C@@H]2CN(c3ncccn3)CC[C@H]2C1`, the cytotoxicity call in the assay on HSkMC (human skeletal muscle cells) and in the assay on HepG2 was “inactive” in each case. Moreover, the growth inhibition call in the assay with S. aureus RN4220 is “inactive”.

For `O=C(C[C@H]1C[C@@H]2c3cc(NS(=O)(=O)c4ccc(F)cc4)ccc3O[C@@H]2[C@H](CO)O1)NC1CCCCC1`, the cytotoxicity call in the assay with HSkMC and in the assay on HepG2 was “inactive” in each case. Further, the growth inhibition call in the assay with S. aureus RN4220 was “inactive”.

Consider `C[C@@H]1CN([C@H](C)CO)C(=O)c2cccc(NC(=O)Nc3ccc(F)cc3)c2O[C@@H]1CN(C)Cc1ccc(-c2ccccc2)cc1`, for which the cytotoxicity call with HSkMC and in the assay with HepG2 was “inactive” each time. Further, the growth inhibition call in the assay with S. aureus RN4220 was “inactive”.

As for `C=CCOC(=O)[C@@H]1[C@H]2C(=O)O[C@H](c3ccccc3)[C@H](c3ccccc3)N2[C@H](c2ccc(OCCOC(=O)[C@H]3C[C@H]4C(=O)N[C@@H](CCCC[N+](C)(C)C)C(=O)N4[C@H]3c3cccc(OCCO)c3)cc2)[C@@]12C(=O)Nc1ccc(I)cc12`, the cytotoxicity call in the assay with HSkMC and in the assay with HepG2 was “inactive” throughout. Moreover, the growth inhibition call in the assay on S. aureus RN4220 was “inactive”.
